Measured values published in PubChem BioAssay AID488895 (Broad Institute, 2010).
Among all 340,000 compounds or so, about 120 (0.035%) were called active. The inconclusive results got no clear call from the source; some entries with a clear call stand among them for comparison.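 The calls were made as follows: active = mean replicate inhibition at least 50% and at least half of replicates individually reaching 50%; inconclusive = only one of the two criteria met; inactive = neither criterion met.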

Assay: E. coli Tat export inhibitors, primary screen, MC4100, TorA-mCherry reporter, fluorescence, single point (AID 488895);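 also: exported cargo escapes ClpAP degradation while cytoplasmic cargo is degraded and loses fluorescence; 0% = median of neutral control wells and 100% = median of NaSCN control wells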
Settings: at 10 µM, hits give high values

SMILES | inhibition
CCOC(=O)c1sc(Nc2nc3ccc(OC)cc3s2)cc1C | inconclusive: 28.4%
CC(C)(C)c1ccc(C(=O)O)c(C(=O)c2ccc(C(=O)O)cc2)c1 | inconclusive: 28.8%
CCCCN1CCC(CN2C(=O)C(=O)NC[C@@H]2Cc2ccccc2)CC1 | inactive: 0.17%
O=C(Nc1ccc(F)c(Cl)c1)c1cccnc1 | inconclusive: 29.4%
Cc1ccc(OCC(=O)Nc2cc(C)on2)c([N+](=O)[O-])n1 | inactive: 1.14%
COc1ccc(C(=O)NC2(C(F)(F)F)C(=O)Nc3c2c(=O)[nH]c(=O)n3CCc2ccc(OC)c(OC)c2)cc1 (centres undefined) | inconclusive: 26.6%
O=C(Nc1ccc(OC(F)(F)F)cc1)Nc1cccnc1 | inactive: 7.07%
CCN(CC)c1ccc(C(=C2C=CC(=[N+](CC)CC)C=C2)c2ccc(S(=O)(=O)O)cc2S(=O)(=O)[O-])cc1 | inconclusive: 49%
Cn1c(SCC(=O)NCc2cccs2)nnc1-c1ccc(S(=O)(=O)N2CCCC2)cc1 | inconclusive: 22.3%
CC1COc2c(N3CCN(C)CC3)c(F)cc3c(=O)c(C(=O)O)cn1c23 (centres undefined) | active: 117%
COc1ccc(Cc2nnc(NS(=O)(=O)c3ccc(Cl)cc3)s2)cc1OC | inconclusive: 33.6%
O=C1CCCc2nc(N3CCCCC3)sc21 | inactive: -1.88%
CCCCNC(=S)Nc1ccc([N+](=O)[O-])cc1 | inactive: 14%
CCOC(=O)/C(=C\c1ccccc1)C(=O)c1cc(C(C)=O)c(Nc2ccccc2)s1 | inactive: -0.117%
COc1ccc(NCC(=O)Nc2ccc(C#N)cc2)cc1Cl | inactive: -8.33%
COc1ccc(CC(=O)OCC(=O)N2CCN(S(=O)(=O)c3ccc(C)cc3C)CC2)cc1 | inactive: -1.85%
Cc1ccc(C(=O)NCC(=O)Nc2ccccc2C(F)(F)F)cc1 | inactive: -1.27%
O=C(NCC1CCCO1)C(c1cccs1)N(C(=O)c1ccc(CN2CCOCC2)o1)c1ccc(Cl)cc1 (centres undefined) | inconclusive: 30.7%
CCN(CC)C(=O)Cn1cc(C(=O)C(=O)NCCCn2ccnc2)c2ccccc21 | inconclusive: 24.7%
CCCCNC(=O)COC(=O)CCC(=O)c1cccs1 | inconclusive: 19.5%
O=C(NC(=S)Nn1cnc2c(cnn2-c2ccccc2)c1=O)c1ccc(Oc2ccccc2)cc1 | inactive: -3.53%
COc1ccc(-c2[nH]nc3c2C(c2ccoc2)C(C#N)=C(N)O3)cc1 (centres undefined) | inconclusive: 35.9%
CN(C)S(=O)(=O)c1ccc(NC(=S)NC(=O)C2CCC2)cc1 | inactive: 5.85%
O=S(=O)(NC1CCCCC1)c1ccc(Cl)s1 | inconclusive: 38.2%
